Laboratory results from the RNAGym collection of RNA variant scans (doi:10.1073/pnas.2313332121).
This sample is rich in variants without activity.

B1: TPR 5TU (parent)
chain: GGAUCUUCUCGAUCUAACAAAAAAGACAAAUCUGCCACAAAGCUUGAGAGCAUCUUCGGAUGCAGAGGCGGCAGCCUUCGGUGGCGCGAUAGCGCCAACGUUCUCAACUAUGACACGCAAAACGCGUGCUCCGUUGAAUGGAGUUUAUCAUG

Variants of: B1
Assay: polymerase ribozyme fitness, log enrichment relative to wild type (log ratio); higher = more active; in vitro selection for triplet polymerase activity
In short: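 After PCR construction and transcription, each subunit's mutant library from a heterodimeric triplet polymerase ribozyme was annealed with a biotinylated primer, the partner subunit and triplets. Incubation was frozen, at −7 °C, and extended constructs were gel-excised, bound to streptavidin beads and amplified by RT-PCR, in one selection round done in triplicate. Fitness is the logarithm of a genotype's enrichment divided by that of the wild type, from inverse-variance-weighted replicate averages of Illumina-sequenced inputs and outputs. The base of the logarithm is 2, and genotypes needed ≥10 input reads and ≥1 read per output.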

Variant | polymerase ribozyme fitness (log ratio)
A17U C57U C79G C85G A91G A97C A122C | ≤ -4.2
C18U A24G U56G A89C C96U A106G C149G | ≤ -4.2
A17U G65C A89U C93G G112C | ≤ -4.2
C18A U56A G58C G94A | -0.964
A17U G86C C87U | ≤ -4.2
C18A A22C G48A G88U G143U | ≤ -4.2
C18U A20G C54A C93G A150C | ≤ -4.2
A17U A29U A37C C75U G80U G92A C125U A142C | ≤ -4.2
A17U A30C U31C G48A U56A U90G G92A G117U G140C U148A | ≤ -4.2
A17U A49C U55A G59A C87G C96U | ≤ -4.2
A17U A91U | ≤ -4.2
A17U A91C | ≤ -4.2
A17U G81A G84A | -0.321
A17U G25C C125U U134A | ≤ -4.2
C18U A22G A49C G86A C131G | -4.14
C18G A66G A73U U90A C93A | ≤ -4.2
A17U G48A G88A A91U G92A U130G U145C | ≤ -4.2
A17U A23C A24C C38U U56A G59A C79U G84A A107C | ≤ -4.2
C18U A28G A40C G50A A52U U77A C93U A98G G117A | ≤ -4.2
A17U G50A A73G C87A C103G C105G | ≤ -4.2
C18A A19U C76A C85U C99U U104G A110G G143C | ≤ -4.2
C18G A28C G68U C96G C105G C114U G141A | ≤ -4.2
A17U C76U C96U | 0.123
A17U G25C A30G A60U C69U G94U C103A U135G G141C A147U | ≤ -4.2

Variant | polymerase ribozyme fitness (log ratio)
A17U U90G C93A A107G | ≤ -4.2
C18U A22U U53G C96A | -3.13
A17U G25U G81U G94C G100U A115G | ≤ -4.2
C18G A21C A23C C54U C72A U82G C93G C96G U102C U135A | ≤ -4.2
A17U C87A A98G C132U G136A | ≤ -4.2
C18G U44G C87U C96A A106G | ≤ -4.2
C18G U78A G83A C118U | ≤ -4.2
A17U C38A U53A G74A C95U | ≤ -4.2
A17U C27U U53A C54U C57A C85U A89G C96A C108U A137G | ≤ -4.2
C18U A19C A40U C85G G100A C132G | ≤ -4.2
C18A A28G A30C G46A G74C | ≤ -4.2
C18G U44A C96G G133A A137U | -4.04
C18G C27G U45A C105G A106G U151A | ≤ -4.2
C18G C54U G83A C93G G152U | ≤ -4.2
C18G C32G C54U G80U U101G U148C G152A | ≤ -4.2
C18G A21G | -0.433
C18G C87A A122G G133A | ≤ -4.2
A17U C95U C99A A107G G133U | ≤ -4.2
A17U C36U G46C U90C C95G C103U C116A | ≤ -4.2
C18A A21G U33G C36A G50A U53A A91U G92A A113U G133A | ≤ -4.2
C18G A24U C96G U104G A113U C116U | ≤ -4.2
A17U A40C C43G A52G G92C G128C | ≤ -4.2
A17U A40C G58C C76U G84U U144G | -0.372
A17U G42C A52U C75A C79G G92C C118U G140C | ≤ -4.2

Variant | polymerase ribozyme fitness (log ratio)
A17U A21G A22C C38U A66U U82C G100A C125U | ≤ -4.2
A17U A24G A28U A41U A47G C79U G83C C95A G100A G126A U145A A150C | ≤ -4.2
C18G A52U G68A C75A U78A G92A C103A A122C U134A | ≤ -4.2
A17U A22U G25C C79U C96U U102G C103A C105U | ≤ -4.2
A17U C35A A47U A66C A73U G86A A91C U109G | ≤ -4.2
A17U A52U C57U C96U A98U C103G A121C G140C | ≤ -4.2
C18A C32U A52U C87G C105A U135A | ≤ -4.2
A17U U82G G84C A110G A119U U139C | ≤ -4.2
C18G A23C A28G G50U U53A C85G G92U | ≤ -4.2
C18G A24G A30U U55A U78A C85U G86C G140U | ≤ -4.2
C18G C38A C93U C105U A113C | -4.17
C18G A40U | 0.0147
C18G G92U U130G | -4.01
A17U A22U A23C A24U G59C U61G C85A C95U | ≤ -4.2
C18G A26C C54A G62A C76G C87A A97C A150U | ≤ -4.2
C18A U56A C85G C96A | -3.54
A17U A29U A47G A49U C87G G92U U151A | ≤ -4.2
C18G A19U A23C G67C G126A G143U U144C | ≤ -4.2
A17U A24U A39G C63G | -4.15
A17U A21U C43U G71A C75U C93A C114U A120U U151G | ≤ -4.2
C18G A28U G48A U55A U82G A91U A137C | ≤ -4.2
C18U A21C A23C G48U G86A A89U | ≤ -4.2
A17U G86U A110U | ≤ -4.2
A17U A24C A26G C57U G86A | ≤ -4.2

Variant | polymerase ribozyme fitness (log ratio)
A17U A20U A73C G86A A89G C131A | ≤ -4.2
C18G A24U A47C U78A G84U C116U | ≤ -4.2
C18G A37G A66G G68C C93A G128A | ≤ -4.2
C18A C36A C95U C96A A142G G152U | ≤ -4.2
C18G A24U C87A C123U G133A U139G U145G | ≤ -4.2
C18G G71C C76A G88A G94A A113G A119U C129U | ≤ -4.2
A17U U31G C32A A150G | ≤ -4.2
C18G G83C C85U C96G A115C C116G U134A | ≤ -4.2
C18U A21G A22U U31A U45G C87U U135A A137G | ≤ -4.2
C18G U90A | ≤ -4.2
A17U C54A G92U C149U | -2.92
A17U A22G A49G C63A C69U A73U | ≤ -4.2
A17U A64G C87U U90G | ≤ -4.2
C18A A21C A37U G48U G83A G128A | ≤ -4.2
A17U G58A C76U C87A A120G G133U | ≤ -4.2
C18G A22U G34A A39U C72U G81C C96U A107C | ≤ -4.2
A17U G42A A113U | ≤ -4.2
C18G A19U G83U C95U C118U U144A | -3.01
C18U A22U G65C C85A | ≤ -4.2
C18A A24C C35U G92U A115C | ≤ -4.2
A17U G50C G68C C85G G94A A106U C123U U134A U135A | ≤ -4.2
C18A A19C U44A G84U C99G | ≤ -4.2
C18G G59A C75U U90C C93A U102C C105U C149G | ≤ -4.2
C18G A29C C35A A89U G128A U144G | ≤ -4.2

Variant | polymerase ribozyme fitness (log ratio)
C18G A113G U134A | -3.95
C18G A20U A21U C43U G46U U61A A64C G65A | ≤ -4.2
C18G A28G A47C C51A C93U | ≤ -4.2
C18G C38G G81C C93G | ≤ -4.2
A17U U77C | ≤ -4.2
C18G A26U C54G G80C G83C C87U A107U G141C U148C | ≤ -4.2
C18U A24U G58A U61C G74U C96U G136A | ≤ -4.2
A17U A37U G48C G59A G88A C149U | ≤ -4.2
C18G A64C U82G A137G | ≤ -4.2
C18G C51A G71U G86U A113U A142C U144A | ≤ -4.2
A17U U56G C125G | -1.81
A17U C79U C85U A97U | ≤ -4.2
A17U A39G G50C A52C C96U C118U | ≤ -4.2
A17U A37G U82A U144A | -2.56
C18G A37G C57A G58A U61A G83A C87U A97C A115G | ≤ -4.2
A17U A28G C85A A120C C125A | ≤ -4.2
C18U A21C U55A | -0.649
C18A A29U G92U C131G | ≤ -4.2
A17U U31C G50A A64U C69A C99U | ≤ -4.2
A17U G100A A120C A150U | ≤ -4.2
A17U U31G G50C U78G U90G C96G | ≤ -4.2
A17U A47U U139C | ≤ -4.2
C18U A28U G50C A66G C95G U135G | ≤ -4.2
A17U A30U U55G A64C C79A A89G A97G U104G G141C U148C | ≤ -4.2

Variant | polymerase ribozyme fitness (log ratio)
C18U A24G A29U C36A U45A C51U C96A A106G | ≤ -4.2
C18G G34A C36G G92C C96A A121U C131A | ≤ -4.2
C18A A21U A30C C54U C69G C76A C87A G140C | ≤ -4.2
C18G C54U U78C | -2.12
A17U G71A C87G G140U | ≤ -4.2
C18G C85U U101C | -0.76
A17U A37G A73U C93A C108U A142U | ≤ -4.2
C18G A20U A28G A41U | ≤ -4.2
A17U C32A A37U A41U | ≤ -4.2
A17U A49G C85U C116A | -0.0919
C18G A23U G59A G68U C87A G128C | ≤ -4.2
A17U C54G G70U A120U G128U A142G | ≤ -4.2
C18G A23U C85G | ≤ -4.2
A17U A28C C87A | ≤ -4.2
C18G G83A U145G U151G | ≤ -4.2
C18A A19U G50C A52U C93U | ≤ -4.2
C18G A49C G81A C96U | ≤ -4.2
A17U C43U C96U G100A U148G | ≤ -4.2
C18G U45C C96U C116A U130C | ≤ -4.2
C18G G81A G94U C96A U104C G143U U148A A150C | ≤ -4.2
A17U G42A G81C G86U G92C G143C | ≤ -4.2
C18G G84C G86A A137G A138G U151G | ≤ -4.2
C18G A20C A52G A73U A120G | -3.02
A17U A39C A66C U90G | ≤ -4.2

Variant | polymerase ribozyme fitness (log ratio)
A17U C95U | -0.895
A17U A23U A26C U55G G81C A142U | ≤ -4.2
A17U G42A G58A G83A G94U C103G A120U A121C | ≤ -4.2
A17U G42A C43G U45G A49G G74C U82A | ≤ -4.2
A17U A30U G42A C95A A138G | ≤ -4.2
A17U A49G C85G C87G U127A G152U | ≤ -4.2
C18A A23C A49C C69U U78G G88A C96U C149A | ≤ -4.2
C18G U134G U151A | ≤ -4.2
A17U C54A | -1.45
C18A A60U C85U U148G | ≤ -4.2
C18G C27G C38U U61A A64C C87G G140C U145G | ≤ -4.2
A17U A39C U56G A60U C75A U102A U134A A150G | ≤ -4.2
C18G A24C G34A C57A C85U A89U A97G A120G A121U | ≤ -4.2
C18G C76G C85A U145A | ≤ -4.2
A17U A40C G50U C87A A98U G117U | ≤ -4.2
C18A A22C G83C G143U | ≤ -4.2
C18G U53A C57U G59C U61A C95G | -3.99
C18G A24U U33A G124A U135A | ≤ -4.2
A17U A23G A24U C57A G59U C85U A107G | ≤ -4.2
C18A A20U C69A G88U C93G C99G U111A G124A G140C | ≤ -4.2
A17U A29U U55A G86U | ≤ -4.2
C18G U61A | -0.567
A17U U44G C85U A150C | ≤ -4.2
